# From the supplement of paper PMC8728848
# The other results are listed elsewhere or left out.
# Key:
# Assay in all cases: glycan array binding signal (z-score within array); higher = stronger binding
# Settings in all cases: glycan notation: IUPAC condensed, linker removed
# [1] = molecular target: Fuc(a1-3)GlcNAc
# Procedure, shortened: (§1)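 The binding signal is a Z-score computed within each array and averaged over linkers. Arrays of the same protein sequence at different concentrations or buffers were also averaged together. Data originate from 3228 arrays in the Consortium for Functional Glycomics database, kept only where the protein sequence was available.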
# [2] = molecular target: Fuc(a1-3)[Gal(b1-4)]Glc6S
# Procedure, shortened: as §1
# [3] = molecular target: Fuc(a1-3)[Gal(b1-4)]GlcNAc
# Procedure, shortened: as §1
# [4] = molecular target: Fuc(a1-3)[Gal(b1-4)]GlcNAc(b1-2)Man
# Procedure, shortened: as §1
# [5] = molecular target: Fuc(a1-3)[Gal(b1-4)]GlcNAc(b1-2)Man(a1-3)[Fuc(a1-3)[Gal(b1-4)]GlcNAc(b1-2)Man(a1-6)]Man(b1-4)GlcNAc(b1-4)GlcNAc
# Procedure, shortened: as §1
# [6] = molecular target: Fuc(a1-3)[Gal(b1-4)]GlcNAc(b1-2)Man(a1-3)[Fuc(a1-3)[Gal(b1-4)]GlcNAc(b1-2)Man(a1-6)]Man(b1-4)GlcNAc(b1-4)[Fuc(a1-6)]GlcNAc
# Procedure, shortened: as §1
# [7] = molecular target: Fuc(a1-3)[Gal(b1-4)]GlcNAc(b1-3)Gal(b1-3)[Fuc(a1-4)]GlcNAc
# Procedure, shortened: as §1
# [8] = molecular target: Fuc(a1-3)[Gal(b1-4)]GlcNAc(b1-3)Gal(b1-4)[Fuc(a1-3)]GlcNAc
# Procedure, shortened: as §1
# [9] = molecular target: Fuc(a1-3)[Gal(b1-4)]GlcNAc(b1-3)Gal(b1-4)[Fuc(a1-3)]GlcNAc(b1-3)Gal(b1-4)[Fuc(a1-3)]GlcNAc
# Procedure, shortened: as §1
# [10] = molecular target: Fuc(a1-3)[Gal(b1-4)]GlcNAc(b1-3)GalNAc
# Procedure, shortened: as §1
# [11] = molecular target: Fuc(a1-3)[Gal(b1-4)]GlcNAc(b1-6)GalNAc
# Procedure, shortened: as §1
# [12] = molecular target: Fuc(a1-3)[Gal(b1-4)]GlcNAc(b1-6)[Gal(b1-3)GlcNAc(b1-3)]Gal(b1-4)Glc
# Procedure, shortened: as §1
# [13] = molecular target: Fuc(a1-3)[Gal(b1-4)]GlcNAc6S
# Procedure, shortened: as §1
# [14] = molecular target: Fuc(a1-3)[Gal3S(b1-4)]Glc
# Procedure, shortened: as §1
# [15] = molecular target: Fuc(a1-3)[Gal3S(b1-4)]GlcNAc
# Procedure, shortened: as §1
# [16] = molecular target: Fuc(a1-3)[Gal3S(b1-4)]GlcNAc6S
# Procedure, shortened: as §1
# [17] = molecular target: Fuc(a1-3)[GalNAc(b1-4)]GlcNAc
# Procedure, shortened: as §1
# [18] = molecular target: Fuc(a1-3)[GalNAc(b1-4)]GlcNAc6S
# Procedure, shortened: as §1
# [19] = molecular target: Fuc(a1-4)GlcNAc
# Procedure, shortened: as §1
# [20] = molecular target: Fuc(b1-3)GlcNAc
# Procedure, shortened: as §1
# [21] = molecular target: Gal(a1-2)Gal
# Procedure, shortened: as §1
# [22] = molecular target: Gal(a1-3)Gal
# Procedure, shortened: as §1
# [23] = molecular target: Gal(a1-3)Gal(b1-3)GlcNAc
# Procedure, shortened: as §1
# [24] = molecular target: Gal(a1-3)Gal(b1-3)GlcNAc(b1-2)Man
# Procedure, shortened: as §1
# [25] = molecular target: Gal(a1-3)Gal(b1-3)GlcNAc(b1-2)Man(a1-3)[Gal(a1-3)Gal(b1-3)GlcNAc(b1-2)Man(a1-6)]Man(b1-4)GlcNAc(b1-4)GlcNAc
# Procedure, shortened: as §1
# [26] = molecular target: Gal(a1-3)Gal(b1-3)GlcNAc(b1-3)GalNAc
# Procedure, shortened: as §1
# [27] = molecular target: Gal(a1-3)Gal(b1-3)GlcNAc(b1-6)GalNAc
# Procedure, shortened: as §1
# [28] = molecular target: Gal(a1-3)Gal(b1-3)[Fuc(a1-4)]GlcNAc(b1-2)Man(a1-3)[Gal(a1-3)Gal(b1-3)[Fuc(a1-4)]GlcNAc(b1-2)Man(a1-6)]Man(b1-4)GlcNAc(b1-4)GlcNAc
# Procedure, shortened: as §1
# [29] = molecular target: Gal(a1-3)Gal(b1-4)Glc
# Procedure, shortened: as §1
# [30] = molecular target: Gal(a1-3)Gal(b1-4)GlcNAc
# Procedure, shortened: as §1
# [31] = molecular target: Gal(a1-3)Gal(b1-4)GlcNAc(b1-2)Man
# Procedure, shortened: as §1
# [32] = molecular target: Gal(a1-3)Gal(b1-4)GlcNAc(b1-2)Man(a1-3)[Gal(a1-3)Gal(b1-4)GlcNAc(b1-2)Man(a1-6)]Man(b1-4)GlcNAc(b1-4)GlcNAc
# Procedure, shortened: as §1
# [33] = molecular target: Gal(a1-3)Gal(b1-4)GlcNAc(b1-3)GalNAc
# Procedure, shortened: as §1
# [34] = molecular target: Gal(a1-3)Gal(b1-4)GlcNAc(b1-6)GalNAc
# Procedure, shortened: as §1
# [35] = molecular target: Gal(a1-3)Gal(b1-4)[Fuc(a1-3)]GlcNAc
# Procedure, shortened: as §1
# [36] = molecular target: Gal(a1-3)Gal(b1-4)[Fuc(a1-3)]GlcNAc(b1-2)Man(a1-3)[Gal(a1-3)Gal(b1-4)[Fuc(a1-3)]GlcNAc(b1-2)Man(a1-6)]Man(b1-4)GlcNAc(b1-4)GlcNAc
# Procedure, shortened: as §1
# [37] = molecular target: Gal(a1-3)GalNAc
# Procedure, shortened: as §1
binder,measurement,setting,value
B1257 (Bifidobacterium sp) (protein) MKKSIRLVAAIAALAMTAGISACGSSTNGNQAKSDVTAQDVETALTDTSKNVELTVWAYSAKQMEPTVKAFEKKYPHIKINFVNTGAAGDHFTKFQNVVQAQKDIPDVVQMGANKFQQFAVSGALLNFANDSIEKAWSKLYTKTAWAQVHYAGGLYGAPQDATPLANYVRKDILDEHNLQVPESWEDIYNEGIKLHKEDSNKYMGILGSDISFFTNLYRSVGARLWKVNSVDDVELTMNSGKAKEFTEFLQKCLKDGVLEGGTVFTDEFNRSINDGRYATFINENWMGNTYKEQNPSLKGKMVVAAPPSWKGQPYQSSSVGSMMSVSAACPKEKQAAALAFINWLDSDKDAIQSWQDTNNGNFFMAASVYQDDENQRNKKETDGYYANDDVNAVYFDSMDKVNTDWEYLPFMSQVEVVFNDVIVPQMNENGDLVGAMAKAQQELKTYAKDNGFKVTTDAD,glycan array binding signal (z-score),[1],-0.11
same,glycan array binding signal (z-score),[2],-0.174
same,glycan array binding signal (z-score),[3],-0.078
same,glycan array binding signal (z-score),[4],0.049
same,glycan array binding signal (z-score),[5],0.139
same,glycan array binding signal (z-score),[6],0.166
same,glycan array binding signal (z-score),[7],-0.105
same,glycan array binding signal (z-score),[8],0.159
same,glycan array binding signal (z-score),[9],-0.151
same,glycan array binding signal (z-score),[10],0.013
same,glycan array binding signal (z-score),[11],0.053
same,glycan array binding signal (z-score),[12],-0.064
same,glycan array binding signal (z-score),[13],-0.027
same,glycan array binding signal (z-score),[14],-0.008
same,glycan array binding signal (z-score),[15],-0.089
same,glycan array binding signal (z-score),[16],0.008
same,glycan array binding signal (z-score),[17],0.046
same,glycan array binding signal (z-score),[18],-0.052
same,glycan array binding signal (z-score),[19],-0.062
same,glycan array binding signal (z-score),[20],-0.081
same,glycan array binding signal (z-score),[21],0.014
same,glycan array binding signal (z-score),[22],0.105
same,glycan array binding signal (z-score),[23],-0.093
same,glycan array binding signal (z-score),[24],0.005
same,glycan array binding signal (z-score),[25],0.027
same,glycan array binding signal (z-score),[26],-0.082
same,glycan array binding signal (z-score),[27],-0.182
same,glycan array binding signal (z-score),[28],0.147
same,glycan array binding signal (z-score),[29],0.064
same,glycan array binding signal (z-score),[30],-0.015
same,glycan array binding signal (z-score),[31],-0.066
same,glycan array binding signal (z-score),[32],-0.023
same,glycan array binding signal (z-score),[33],-0.017
same,glycan array binding signal (z-score),[34],-0.213
same,glycan array binding signal (z-score),[35],-0.074
same,glycan array binding signal (z-score),[36],0.147
same,glycan array binding signal (z-score),[37],-0.077
